# Measured values as given in the supplement of paper PMC8728848.
# Some of the results follow.
# Experiments:
# Assay in all cases: glycan array binding signal (z-score within array); higher = stronger binding
# Settings in all cases: glycan notation: IUPAC condensed, linker removed
# [1] = biological target: Man(a1-3)[Man(a1-6)]Man(a1-6)[Man(a1-3)]Man
# In short: (§1)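 Glycan array data came from 3228 arrays in the Consortium for Functional Glycomics database, and only arrays with an available protein sequence were kept. Glycan names were put into IUPAC-condensed notation, and columns mapping to the same glycan were averaged. The binding signal is a within-array Z-score, averaged across arrays of one protein sequence run at different concentrations or buffers and across linkers. A negative Z-score can be read as non-binding.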
# [2] = biological target: Man(a1-3)[Man(a1-6)]Man(a1-6)[Man(a1-3)]Man(b1-4)GlcNAc(b1-4)GlcNAc
# In short: as §1
# [3] = biological target: Man(a1-3)[Man(a1-6)]Man(b1-4)GlcNAc(b1-4)GlcNAc
# In short: as §1
# [4] = biological target: Man(a1-3)[Man(a1-6)]Man(b1-4)GlcNAc(b1-4)[Fuc(a1-6)]GlcNAc
# In short: as §1
# Man(a1-6)Man = biological target: Man(a1-6)Man
# In short: as §1
# Man(b1-4)GlcNAc = biological target: Man(b1-4)GlcNAc
# In short: as §1
# MurNAc(b1-4)GlcNAc = biological target: MurNAc(b1-4)GlcNAc
# In short: as §1
# Neu5Ac(a2-3)Gal = biological target: Neu5Ac(a2-3)Gal
# In short: as §1
# [5] = biological target: Neu5Ac(a2-3)Gal(b1-3)GalNAc
# In short: as §1
# [6] = biological target: Neu5Ac(a2-3)Gal(b1-3)GalNAc(b1-3)Gal(a1-4)Gal(b1-4)Glc
# In short: as §1
# [7] = biological target: Neu5Ac(a2-3)Gal(b1-3)GalNAc(b1-4)[Neu5Ac(a2-3)]Gal(b1-4)Glc
# In short: as §1
# [8] = biological target: Neu5Ac(a2-3)Gal(b1-3)GalNAc(b1-4)[Neu5Ac(a2-8)Neu5Ac(a2-3)]Gal(b1-4)Glc
# In short: as §1
# [9] = biological target: Neu5Ac(a2-3)Gal(b1-3)GalNAc6S
# In short: as §1
# [10] = biological target: Neu5Ac(a2-3)Gal(b1-3)GlcNAc
# In short: as §1
# [11] = biological target: Neu5Ac(a2-3)Gal(b1-3)GlcNAc(b1-2)Man
# In short: as §1
# [12] = biological target: Neu5Ac(a2-3)Gal(b1-3)GlcNAc(b1-2)Man(a1-3)[GlcNAc(b1-4)][Neu5Ac(a2-3)Gal(b1-3)GlcNAc(b1-2)Man(a1-6)]Man(b1-4)GlcNAc(b1-4)GlcNAc
# In short: as §1
# [13] = biological target: Neu5Ac(a2-3)Gal(b1-3)GlcNAc(b1-2)Man(a1-3)[Neu5Ac(a2-3)Gal(b1-3)GlcNAc(b1-2)Man(a1-6)]Man(b1-4)GlcNAc(b1-4)GlcNAc
# In short: as §1
# [14] = biological target: Neu5Ac(a2-3)Gal(b1-3)GlcNAc(b1-3)Gal(b1-3)GlcNAc
# In short: as §1
# [15] = biological target: Neu5Ac(a2-3)Gal(b1-3)GlcNAc(b1-3)Gal(b1-4)GlcNAc
# In short: as §1
# [16] = biological target: Neu5Ac(a2-3)Gal(b1-3)GlcNAc(b1-3)GalNAc
# In short: as §1
# [17] = biological target: Neu5Ac(a2-3)Gal(b1-3)GlcNAc(b1-4)Gal(b1-4)Glc
# In short: as §1
# [18] = biological target: Neu5Ac(a2-3)Gal(b1-3)GlcNAc(b1-6)GalNAc
# In short: as §1
# [19] = biological target: Neu5Ac(a2-3)Gal(b1-3)GlcNAc6S
# In short: as §1
# [20] = biological target: Neu5Ac(a2-3)Gal(b1-3)[Fuc(a1-4)]GlcNAc
# In short: as §1
# [21] = biological target: Neu5Ac(a2-3)Gal(b1-3)[Fuc(a1-4)]GlcNAc(b1-3)Gal(b1-3)[Fuc(a1-4)]GlcNAc
# In short: as §1
# [22] = biological target: Neu5Ac(a2-3)Gal(b1-3)[Fuc(a1-4)]GlcNAc(b1-3)Gal(b1-4)[Fuc(a1-3)]GlcNAc
# In short: as §1
# [23] = biological target: Neu5Ac(a2-3)Gal(b1-3)[GlcNAc(b1-6)]GalNAc
# In short: as §1
# [24] = biological target: Neu5Ac(a2-3)Gal(b1-3)[Neu5Ac(a2-6)]GalNAc
# In short: as §1
# [25] = biological target: Neu5Ac(a2-3)Gal(b1-3)[Neu5Ac(a2-6)]GlcNAc(b1-3)[Fuc(a1-3)[Gal(b1-4)]GlcNAc(b1-6)]Gal(b1-4)Glc
# In short: as §1
# [26] = biological target: Neu5Ac(a2-3)Gal(b1-3)]Neu5Ac(a2-3)Gal(b1-4)]GlcNAc
# In short: as §1
# Neu5Ac(a2-3)Gal(b1-4)Glc = biological target: Neu5Ac(a2-3)Gal(b1-4)Glc
# In short: as §1
# [27] = biological target: Neu5Ac(a2-3)Gal(b1-4)GlcNAc
# In short: as §1
# [28] = biological target: Neu5Ac(a2-3)Gal(b1-4)GlcNAc(b1-2)Man
# In short: as §1
# [29] = biological target: Neu5Ac(a2-3)Gal(b1-4)GlcNAc(b1-2)Man(a1-3)[GlcNAc(b1-4)][Neu5Ac(a2-3)Gal(b1-4)GlcNAc(b1-2)Man(a1-6)]Man(b1-4)GlcNAc(b1-4)GlcNAc
# In short: as §1
# [30] = biological target: Neu5Ac(a2-3)Gal(b1-4)GlcNAc(b1-2)Man(a1-3)[Neu5Ac(a2-3)Gal(b1-4)GlcNAc(b1-2)Man(a1-6)]Man(b1-4)GlcNAc(b1-4)GlcNAc
# In short: as §1
# [31] = biological target: Neu5Ac(a2-3)Gal(b1-4)GlcNAc(b1-2)Man(a1-3)[Neu5Ac(a2-3)Gal(b1-4)GlcNAc(b1-2)Man(a1-6)]Man(b1-4)GlcNAc(b1-4)[Fuc(a1-6)]GlcNAc
# In short: as §1
# [32] = biological target: Neu5Ac(a2-3)Gal(b1-4)GlcNAc(b1-2)Man(a1-3)[Neu5Ac(a2-6)Gal(b1-4)GlcNAc(b1-2)Man(a1-6)]Man(b1-4)GlcNAc(b1-4)GlcNAc
# In short: as §1
# [33] = biological target: Neu5Ac(a2-3)Gal(b1-4)GlcNAc(b1-2)[Neu5Ac(a2-3)Gal(b1-4)GlcNAc(b1-4)]Man(a1-3)[GlcNAc(b1-4)][Neu5Ac(a2-3)Gal(b1-4)GlcNAc(b1-2)[Neu5Ac(a2-3)Gal(b1-4)GlcNAc(b1-6)]Man(a1-6)]Man(b1-4)GlcNAc(b1-4)GlcNAc
# In short: as §1
binder,measurement,setting,value
PX9937A-bvu-521-23-521 (Bacteroides vulgatus) (protein) LDLAPEDYYGAGNFWKEASQPKAFMLGLHAQLRSYYDMFYTLGELRGGTQRVGTSSLNTSLNYADIRSQNISEDIPGISNWNGLYSPIMQVNHFIQEVENGCTFLDDATRSRYLGQAYGMRALYYFMLYRTFGGVPLITKVDILDGKPSADKFYVERATPEATMEFIKADINKSENYFGNNTSFDAYDWSRYATLMLKAEIYMWAAKVSITGFTATGATDLQTAKTALSGIIGHFELMDNFASIFSCDNKKNTEIIFAMPFIEGEASNDGGRFLYQDAVFLGQAYGRNGKVIEKDTLNLKGTGGVFRDEYTEDFWKTFKEGDSRRDATFMEYYMKNDNGTLSEFGCVMKKRIGTINSNDNRIYISDIPVYRYADALLMMAEIENGLNNPCASYINEVRKRAYGDTFEENKYTEGSYAENELAILQERDKEFVSEGKRWFDVLRMHDASGRSLVFSANANYPGTNPILGTEEAYKMLWPVNIGTLNVNPLLTQTPGYGKK,glycan array binding signal (z-score),[1],-0.289
same,glycan array binding signal (z-score),[2],-0.628
same,glycan array binding signal (z-score),[3],-0.247
same,glycan array binding signal (z-score),[4],-0.305
same,glycan array binding signal (z-score),Man(a1-6)Man,4.8
same,glycan array binding signal (z-score),Man(b1-4)GlcNAc,2.1
same,glycan array binding signal (z-score),MurNAc(b1-4)GlcNAc,-0.6
same,glycan array binding signal (z-score),Neu5Ac(a2-3)Gal,-0.54
same,glycan array binding signal (z-score),[5],-0.395
same,glycan array binding signal (z-score),[6],0.305
same,glycan array binding signal (z-score),[7],-0.401
same,glycan array binding signal (z-score),[8],0.038
same,glycan array binding signal (z-score),[9],-0.229
same,glycan array binding signal (z-score),[10],-0.441
same,glycan array binding signal (z-score),[11],0.014
same,glycan array binding signal (z-score),[12],-0.321
same,glycan array binding signal (z-score),[13],-0.549
same,glycan array binding signal (z-score),[14],0.541
same,glycan array binding signal (z-score),[15],-0.227
same,glycan array binding signal (z-score),[16],-0.108
same,glycan array binding signal (z-score),[17],-0.417
same,glycan array binding signal (z-score),[18],-0.64
same,glycan array binding signal (z-score),[19],-0.431
same,glycan array binding signal (z-score),[20],-0.235
same,glycan array binding signal (z-score),[21],0.06
same,glycan array binding signal (z-score),[22],0.754
same,glycan array binding signal (z-score),[23],-0.458
same,glycan array binding signal (z-score),[24],0.442
same,glycan array binding signal (z-score),[25],0.681
same,glycan array binding signal (z-score),[26],0.243
same,glycan array binding signal (z-score),Neu5Ac(a2-3)Gal(b1-4)Glc,0.96
same,glycan array binding signal (z-score),[27],-0.358
same,glycan array binding signal (z-score),[28],0.022
same,glycan array binding signal (z-score),[29],-0.062
same,glycan array binding signal (z-score),[30],0.086
same,glycan array binding signal (z-score),[31],-0.188
same,glycan array binding signal (z-score),[32],-0.427
same,glycan array binding signal (z-score),[33],-0.301
